Results published in PubChem BioAssay AID588855 (National Center for Advancing Translational Sciences (NCATS), 2011).
Out of some 410,000 compounds screened, about 5,000 (1.2%) were called active. Inconclusive means that the source gave no clear call. Such entries were picked first, then a sample of the others. The call rests on the fitted dose curve; in most records, active means well fitted inhibition curve with a large enough effect; inconclusive means small, poorly fitted or top-dose-only effect; inactive means no such curve, though single readings can be large or run the other way. Where the call is inconclusive, the potency comes from a doubtful curve fit.

Assay: qHTS for Inhibitors of TGF-b; further: nearly all actives have a fitted effect of over 65% in size
Conditions: HepG2 CAGA-GFP TGF-b/SMAD3 reporter, GFP fluorescence, 18 h, TGF-beta stimulated, 500 pg/mL final; series mostly up to 46.1 µM
Method in brief: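 Inhibition was scored as loss of TGF-beta-induced (500 pg/mL final, 18 hours, 37 degrees C) GFP in HEPG2 cells carrying a CAGA-GFP reporter, in DMEM with 1% FBS. Well GFP was summed per cell; Activity was normalised to unstimulated and stimulated DMSO wells, then concentration-response fitting.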
Potency means the concentration at half of the fitted maximal effect; tags describe the fitted curve by direction and shape.

Row | Compound | Potency
1 | O=C(NC(c1ccc(-c2ccccc2)cc1)c1cnccn1)C1CCN(Cc2ccc(Oc3ccccc3)cc2)CC1 (stereo unspecified) | inconclusive: 35.5 µM [inhibitor, single point]
2 | CC1(C)OC(c2ccccc2)=C/C(=C\C=N\NC(=O)c2ccncc2)O1 | inconclusive: 35.5 µM [inhibitor, single point]
3 | Fc1ccc(CN2CC[C@H]3C=CCc4cccc(c43)C2)cc1 | inconclusive: 14.1 µM [inhibitor, single point]
4 | CCOC(=O)[C@H]1[C@H]2COc3cc(OC)ccc3[C@@H]2N2C(=O)c3cc(OC)ccc3NC(=O)[C@@]12C | inconclusive: 1.26 µM [inhibitor, full curve, poor fit]
5 | CC[C@@H]1C(c2cccc(Cl)c2)=NN(c2ccc(Br)cc2)[C@H]1C(=O)N1CCOC1=O | inconclusive: 20 µM [inhibitor, single point]
6 | Nc1c(C(=O)c2ccccc2)sc(Nc2ccc(Cl)c(Cl)c2)c1C(=O)Nc1ccccc1 | inconclusive: 5.62 µM [inhibitor, partial curve, poor fit]
7 | NC(=O)c1cc(-c2csc(NCCc3ccccc3)n2)ccc1O | inconclusive: 35.5 µM [inhibitor, single point]
8 | CC(=O)Nc1ccc(Nc2ncnc3sc4c(c23)CCCC4)cc1 | inactive
9 | O=C(/C(=C/O)N=Nc1cccc(C(F)(F)F)c1)c1ccccc1 | inconclusive: 22.4 µM [inhibitor, single point]
10 | CCc1c(C)sc(NC(=O)c2cc(CC(C)C)on2)c1C#N | inactive
11 | CCn1c(CC2C(=O)N(C)c3ccc(Br)cc32)nc2ccccc2c1=O (stereo unspecified) | inconclusive: 7.08 µM [inhibitor, partial curve]
12 | Cc1cccc(C(=O)N2CCc3cc(CNS(=O)(=O)c4cccs4)ccc32)c1 | inconclusive: 25.1 µM [inhibitor, single point]
13 | CN(CCOc1ccc(Br)cc1)CC(O)c1ccccc1 (stereo unspecified) | inactive
14 | Cc1ccc(S(=O)(=O)Nc2ccc3nc(C)oc3c2)cc1 | inconclusive: 3.98 µM [inhibitor, partial curve, poor fit]
15 | O=C(Nc1ccc(-c2csc(Nc3ccccc3)n2)cc1)c1cc([N+](=O)[O-])cc(C(F)(F)F)c1 | inconclusive: 5.01 µM [inhibitor, partial curve, poor fit]
16 | Cc1ccc(C(=O)NC2(C(F)(F)F)N=C(c3ccccc3)N(C3CCCCC3)C2=O)cc1 (stereo unspecified) | inactive
17 | Cc1cc(NC(=O)CSc2nnc(CNc3ccc(F)cc3)n2C2CCCCC2)no1 | inconclusive: 3.98 µM [inhibitor, full curve]
18 | CCOC(=O)C1=C(Cc2ccc(F)cc2)C(=O)c2ccccc2C1=O | inactive
19 | CCOC(=O)c1c(NC(=O)CC2SC(N)=NC2=O)sc(C)c1C (stereo unspecified) | inactive
20 | COc1ccc(-n2c(SCc3cn4c(C)cccc4n3)nc3ccccc3c2=O)cc1OC | inconclusive: 35.5 µM [inhibitor, single point]
21 | Cc1cc(OCC(=O)N(Cc2ccco2)c2c(N)n(Cc3ccccc3)c(=O)[nH]c2=O)ccc1Cl | inconclusive: 35.5 µM [inhibitor, single point]

Row | Compound | Potency
22 | CC(CN1CCCCC1)C(=O)NN (stereo unspecified) | inconclusive: 35.5 µM [inhibitor, single point]
23 | COc1ccc(-c2cc3ccc(O)c(CN4CCCC4)c3oc2=O)cc1OC | inactive
24 | COc1ccc(-c2cc(C(F)(F)F)n3nc(C(=O)N4CCCCC4)cc3n2)cc1 | inactive
25 | Cc1cc(C(F)(F)F)cc(NNC(=O)NC(=O)c2ccccc2Cl)n1 | inconclusive: 35.5 µM [inhibitor, single point]
26 | O=C(COc1ccccc1)NCC(=O)N1CCCC(C(F)(F)F)C1 (stereo unspecified) | inactive
27 | O=C(O)c1cccc(COCC(F)(F)C(F)F)c1 | inconclusive: 10 µM [inhibitor, partial curve]
28 | Cc1ccc(S(=O)(=O)NCC(=O)NCC(=O)N(C)Cc2ccc3ccccc3c2)cc1C | inconclusive: 15.8 µM [inhibitor, partial curve, poor fit]
29 | CCN(c1ccccc1)S(=O)(=O)c1ccc(C(=O)Nc2c(C)n(C)n(-c3ccccc3)c2=O)cc1 | inactive
30 | Cc1ccc(-n2[nH]c(C)c(/C=N/Nc3ccc([N+](=O)[O-])cc3[N+](=O)[O-])c2=O)cc1 | inconclusive: 3.55 µM [inhibitor, full curve, poor fit]
31 | COc1cccc(-c2csc(N3CCN(C(=S)NCC(C)C)CC3)n2)c1 | inconclusive: 35.5 µM [inhibitor, single point]
32 | O=C(CCN1C(=O)c2ccccc2C1=O)c1ccccc1 | inconclusive: 3.16 µM [inhibitor, single point]
33 | COc1cccc(NC(=O)COc2cc(O)c3c(c2)OC(C)(C)CC3=O)c1 | inactive
34 | COc1ccc(C(=O)NCCCN2CCN(CCCNC(=O)c3ccc(OC)c(OC)c3)CC2)cc1OC | inactive
35 | O=C(CSc1nnc(-c2n[nH]c3ccccc23)n1-c1ccccc1)Nc1cccc(Cl)c1 | inconclusive: 35.5 µM [inhibitor, single point]
36 | Cc1ccc(C(=O)/C=C/c2ccc3c(c2)OCO3)o1 | inconclusive: 35.5 µM [inhibitor, single point]
37 | CCCCCn1c(=O)c2c(nc3n2CCN3c2ccc(Br)cc2)n(C)c1=O | inconclusive: 0.224 µM [inhibitor, full curve, poor fit]
38 | CSc1ccccc1NC(=O)C(C)N(C)CC(=O)N1CCN(Cc2ccccc2)CC1 (stereo unspecified) | inconclusive: 5.01 µM [inhibitor, full curve]
39 | CSc1nc(N)nc(SCC(=O)Nc2ccc(Cl)cc2)c1C#N | inconclusive: 12.6 µM [inhibitor, partial curve, poor fit]
40 | COc1ccc(N/C=C(\C#N)c2nc3ccccc3n2C)c(OC)c1 | inconclusive: 3.98 µM [inhibitor, full curve, poor fit]
41 | CCC(C)NCC(=O)Nc1ccc(-c2nc3cc(NC(=O)CNC(C)CC)ccc3o2)cc1 (stereo unspecified) | inconclusive: 35.5 µM [inhibitor, single point]
